Assay results: the BET-seq Pho4 binding data (Le et al. 2018)
The list shows a part of the results. Values were computed here from the reads of four pooled replicates and scatter widely.

Target: T1, Pho4 (S. cerevisiae) (UniProt P07270)
T1 sequence: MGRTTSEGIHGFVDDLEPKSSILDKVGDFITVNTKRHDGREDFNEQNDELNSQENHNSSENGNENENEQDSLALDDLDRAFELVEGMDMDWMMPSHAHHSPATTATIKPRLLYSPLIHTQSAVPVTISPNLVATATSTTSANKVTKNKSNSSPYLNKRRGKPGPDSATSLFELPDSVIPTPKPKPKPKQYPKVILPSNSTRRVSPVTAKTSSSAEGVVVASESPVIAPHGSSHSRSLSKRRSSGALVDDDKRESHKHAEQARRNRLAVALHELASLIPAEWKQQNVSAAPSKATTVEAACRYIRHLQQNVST
Assay: relative binding free energy (BET-seq); higher = weaker binding
Conditions: reference: library average

Sequence	relative binding free energy [kcal/mol]
GGTTACACGTGTAGAT	0.22
TTTGGCACGTGGACCG	0.05
AGTCGCACGTGTTGGA	-0.03
GGGATCACGTGGGCGT	0.04
ATTAACACGTGAAGGT	0.33
GCCTACACGTGGTGGG	0.07
ATTAACACGTGGAGAG	0.04
TTGGACACGTGAAGAG	0.19
CGCGGCACGTGGGTTG	-0.2
AGGGACACGTGGAAGG	0.07
TATATCACGTGGATGG	0.14
TGAGCCACGTGTATAG	0
ATCATCACGTGTGGAG	0.08
CAGTTCACGTGGTTGC	0.29
TAGTACACGTGGGTTC	-0.04
GAGGGCACGTGATTGG	0.09
TTTGACACGTGTGATG	0.07
TATAACACGTGTTTAT	-0.17
GGTTTCACGTGGTATC	0.27
GGATTCACGTGTCATG	0.27
AAAAACACGTGGTGGT	-0.08
TTGGCCACGTGGGAGT	-0.18
GCGGTCACGTGGGTTA	-0.04

Sequence	relative binding free energy [kcal/mol]
GTTGGCACGTGTTTAG	-0.08
AGGAGCACGTGACGGG	-0.07
TTGAACACGTGGCTGG	-0.08
GTAGGCACGTGAGCAT	0.02
TGAAGCACGTGTGTCA	-0.09
ATTTGCACGTGGAGTA	0.05
TTGAACACGTGGGAGT	-0.04
GGAGGCACGTGCAGGT	-0.07
ATGATCACGTGGCTTA	0.07
CGTGGCACGTGAGTCG	0
CGTTTCACGTGGTGAA	0.13
TCTTTCACGTGTTGAA	0.36
CGCGTCACGTGGCGGG	-0.07
TATCTCACGTGTGCGT	0.16
TTCGGCACGTGTCGAA	0.17
TGCGGCACGTGTTTTA	-0.05
GTGGTCACGTGTCCGG	0.15
TAGAGCACGTGATTTA	0.08
GCGGTCACGTGGGCAG	0
AGGTCCACGTGCGGTT	-0.09
TATGGCACGTGTTATC	-0.18
TGGGGCACGTGGTTAG	-0.13
ATTGTCACGTGTAGCT	0.06

Sequence	relative binding free energy [kcal/mol]
ATAGCCACGTGAGGGT	0
GAGCGCACGTGTGGGT	-0.02
AGTCTCACGTGTTGAG	0.29
TCTGACACGTGGTAGG	-0.02
TCGTTCACGTGTTGCG	0.13
CGGTGCACGTGTACGG	0.01
TCTGGCACGTGGGATT	-0.15
TCTTTCACGTGAGATG	0.41
GGTCGCACGTGGGGGC	-0.1
TAGAGCACGTGAAGAT	0.34
GGTTTCACGTGTGTGA	0.31
GCAGACACGTGTGGGA	0.09
GGGTGCACGTGTTACA	0.04
TCTTTCACGTGGCGTG	0.16
TTGGCCACGTGGCATG	-0.21
GCAGTCACGTGTATGT	0.16
CAGGCCACGTGTGGTT	-0.02
TCTGTCACGTGTGATT	0.17
GGGCGCACGTGTGAAT	-0.01
ATTTACACGTGTGCAT	0.04
CTTCGCACGTGGTTTA	-0.07
GTCGTCACGTGGTAGC	0.17
TAAGACACGTGGGGTT	-0.08

Sequence	relative binding free energy [kcal/mol]
GGTGTCACGTGATCAT	0.2
ACAGGCACGTGGGGGT	-0.3
TTGGTCACGTGCTGGC	0.06
TAGTCCACGTGGGTGT	-0.17
GTCTTCACGTGGGTGA	0.1
TCTAGCACGTGAATGT	0.22
GCGGCCACGTGGCGGG	-0.15
TTTGTCACGTGTTCTC	0
ATTTCCACGTGGGGTA	-0.16
AATTACACGTGATTGA	0.28
GTCGGCACGTGAGGGT	0.16
ACGTTCACGTGAAGGT	0.31
CCGGTCACGTGAGGGG	0.2
CGGGCCACGTGTGCGG	-0.11
CGTTTCACGTGGAGGC	0.27
TTGAGCACGTGCCGGG	-0.11
CGGAGCACGTGAGTTT	0.15
TGCGTCACGTGGATTG	0.1
GAGTGCACGTGATTTT	0.25
CTTAGCACGTGAGAGG	0.11
GGGAGCACGTGGCAAG	-0.22
TTTTTCACGTGGATGG	0.33
CGTTTCACGTGGGGCG	0.28

Sequence	relative binding free energy [kcal/mol]
ATGATCACGTGACGGG	0.22
GCATTCACGTGTGTTT	0.34
ATGTGCACGTGCATAG	-0.06
TATGTCACGTGGGGGC	-0.02
TTATGCACGTGTGCGT	0.05
AGTTTCACGTGTACAG	0.23
ATACTCACGTGGTGAT	0.18
GGTCGCACGTGGTTGT	-0.13
TGATTCACGTGCGTAT	0.25
CTTGGCACGTGGAGAG	-0.03
TTCTACACGTGGTTAG	0.09
AAAGTCACGTGGCTTT	0.07
AAGTGCACGTGAATGG	0.2
CTTGTCACGTGTTCAG	0.13
AGACTCACGTGGGGGA	0.14
TATTACACGTGATAGA	0.21
GGATGCACGTGTTGTA	0.02
ACTGTCACGTGGGTAT	-0.05
TGGTGCACGTGTTGAC	-0.07
ATATTCACGTGTGTGC	0.2
ATGGGCACGTGATTAA	0
AGGTGCACGTGGCCAG	-0.09
TCTTACACGTGTATAG	0.21
